# Test results published in the supplement of paper PMC9446081.
# Screen size: about 39,000 compounds; about 220 (0.56%) showed activity. The list shows a part of the results.
# System: Escherichia coli K-12 BW25113
# Test: relative growth (OD600 normalised to plate interquartile mean) (fraction); higher = less growth inhibition, active = 0.2 or less
# Conditions: 50 µM; LB; incubation time: overnight (16-24 h)
# 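Note: static incubation at 37 °C against the wild-type strain, values averaged over two biological replicates.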
row,SMILES,relative growth
1,C[C@@H]1CCCCO[C@@H](CN(C)Cc2ccc(C(F)(F)F)cc2)[C@@H](C)CN([C@H](C)CO)C(=O)c2cc(NC(=O)CCCCCC(=O)Nc3ccccc3N)ccc2O1,inactive: 1.05
2,CCCN1C(=O)[C@@]2(c3ccc([N+](=O)[O-])cc3)CC(=O)N(CC34CC5CC(CC(C5)C3)C4)[C@@H]2c2ccc(CO)cc21,inactive: 0.998
3,CNC[C@H]1Oc2c(NS(=O)(=O)c3cn(C)cn3)cccc2C(=O)N([C@H](C)CO)C[C@H]1C,inactive: 1.01
4,O=C(Cc1ccc2c(c1)OCO2)N[C@@H]1CCNC[C@H]1O,inactive: 0.987
5,COCC(=O)N(C)C[C@H]1Oc2cc(-c3ccc(C#N)cc3)ccc2S(=O)(=O)N([C@H](C)CO)C[C@@H]1C,inactive: 1.01
6,COc1ccc2c3c(n(c2c1)C)[C@H](CO)N(Cc1ccccc1F)C[C@]13CN(C1)C(=O)C1CCOCC1,inactive: 1.03
7,C[C@@H]1CN([C@H](C)CO)C(=O)c2cc(NC(=O)Nc3ccc4c(c3)OCO4)ccc2O[C@@H](C)CCCCO[C@H]1CN(C)C(=O)c1ccccc1,inactive: 1.01
8,Cc1ccc(S(=O)(=O)N(C)C[C@H]2OCCCC[C@@H](C)Oc3ccc(NC(=O)Cc4ccccc4)cc3C(=O)N([C@@H](C)CO)C[C@@H]2C)cc1,inactive: 0.997
9,C[C@H]1CN([C@@H](C)CO)C(=O)Cc2cc(NC(=O)Cc3ccccc3)ccc2O[C@H]1CN(C)S(=O)(=O)c1ccc(F)cc1,inactive: 1.01
10,O=C(CCCCCCC(=O)Nc1ccc([C@H]2O[C@@H](CN3CCCCCCC3)C[C@H](c3ccccc3)O2)cc1)NO,inactive: 1.02
11,CO[C@H](CN(C)S(=O)(=O)c1ccc(C)cc1)[C@@H](C)CN([C@@H](C)CO)S(=O)(=O)c1cccc(Cl)c1,inactive: 1.02
12,C=CC1=C(C(=O)O)N2C(=O)[C@@H](NC(=O)/C(=N\OCC(=O)O)c3csc(N)n3)[C@H]2SC1,active: 0.0479
13,Cc1ccc(S(=O)(=O)Nc2ccc3c(c2)CC(=O)N([C@H](C)CO)C[C@H](C)[C@@H](CN(C)Cc2ccc(Cl)c(Cl)c2)O3)cc1,inactive: 0.96
14,COc1ccc(S(=O)(=O)Nc2ccc3c(c2)C(=O)N([C@@H](C)CO)C[C@@H](C)[C@H](CN(C)Cc2ccc(Oc4ccccc4)cc2)O3)cc1,inactive: 0.985
15,C[C@H]1CN([C@@H](C)CO)C(=O)c2cc(NC(=O)Nc3ccc4c(c3)OCO4)ccc2O[C@@H]1CN(C)Cc1ccc(-c2ccccc2)cc1,inactive: 0.995
16,CO[C@H]1C[C@@H](C[C@@H](C)[C@H]2CC(=O)[C@@H](C)/C=C(/C)[C@@H](O)[C@@H](OC)C(=O)[C@@H](C)C[C@@H](C)C=C/C=C\C=C(C)[C@H](OC)C[C@H]3CC[C@@H](C)[C@@](O)(O3)C(=O)C(=O)N3CCCC[C@@H]3C(=O)O2)CC[C@@H]1O,inactive: 0.99
17,CN(C)C(=O)C[C@H]1C=C[C@H](NC(=O)C2CCOCC2)[C@@H](CO)O1,inactive: 0.992
18,C[C@@H]1CCCCO[C@H](CN(C)C(=O)Nc2cccc3ccccc23)[C@H](C)CN([C@@H](C)CO)C(=O)c2cc(NC(=O)Nc3ccc(F)cc3)ccc2O1,inactive: 1.02
19,COCC(=O)N(C)C[C@@H]1Oc2cc(C#C[C@@H](C)O)ccc2S(=O)(=O)N([C@H](C)CO)C[C@@H]1C,inactive: 1.03

row,SMILES,relative growth
1,C[C@H]1CCCCO[C@H](CN(C)C(=O)Nc2ccc(C(F)(F)F)cc2)[C@@H](C)CN([C@@H](C)CO)C(=O)c2cc(NS(=O)(=O)c3ccc(F)cc3)ccc2O1,inactive: 1.01
2,C=CCOC(=O)[C@H]1[C@@H]2C(=O)O[C@@H](c3ccccc3)[C@@H](c3ccccc3)N2[C@@H](c2ccc(OCCOC(=O)[C@@H]3C[C@@H]4C(=O)N5CCC[C@H]5C(=O)N4[C@@H]3c3cccc(OCCO)c3)cc2)[C@]12C(=O)Nc1ccc(I)cc12,inactive: 1.02
3,COc1ccc(CN(C)C[C@H]2OCCCC[C@H](C)Oc3ccc(NC(=O)C4CCCCC4)cc3C(=O)N([C@H](C)CO)C[C@H]2C)cc1,inactive: 0.982
4,C[C@H]1CN([C@@H](C)CO)C(=O)c2cccc(NS(=O)(=O)c3cn(C)cn3)c2O[C@@H]1CN(C)Cc1ccc(C(=O)O)cc1,inactive: 0.994
5,Oc1cccc(c1)/C/1=C/2\CC/C(=C(\c3cccc(c3)O)c3ccc([nH]3)/C(=C\3/C=CC(=N3)/C(=C\3/C=CC1=N3)c1cccc(c1)O)c1cccc(c1)O)N2,inactive: 1.16
6,CC(C)NC(=O)Nc1ccc2c(c1)C(=O)N([C@@H](C)CO)C[C@H](C)[C@H](CN(C)Cc1ccc(C(=O)O)cc1)O2,inactive: 1
7,C[C@@H]1CN([C@H](C)CO)C(=O)c2cc(NC(=O)Nc3ccc(C(F)(F)F)cc3)ccc2O[C@@H]1CN(C)Cc1ccc(Cl)c(Cl)c1,inactive: 1.01
8,CCCCC(=O)c1ccc(O)cc1,inactive: 0.939
9,Cc1ccc(CCSc2ccc(Cl)c(Cl)c2)cn1,inactive: 0.961
10,COc1ccc(C#Cc2ccc3c(c2)[C@]2(C(=O)N3)[C@H](c3ccccc3OCCO)N3[C@H](c4ccccc4)[C@H](c4ccccc4)OC(=O)[C@H]3[C@@H]2C(=O)N2CCc3cc(OC)c(OC)cc3C2)cc1,inactive: 1.07
11,C[C@@H]1CN([C@@H](C)CO)C(=O)c2cccc(NC(=O)Nc3ccc(C(F)(F)F)cc3)c2O[C@@H]1CN(C)S(C)(=O)=O,inactive: 0.88
12,COc1ccc(S(=O)(=O)Nc2ccc3c(c2)CC(=O)N([C@@H](C)CO)C[C@@H](C)[C@H](CN(C)Cc2ccc(Oc4ccccc4)cc2)O3)cc1,inactive: 0.996
13,C[C@@H]1CCCCO[C@H](CN(C)Cc2ccc(C(=O)O)cc2)[C@@H](C)CN([C@@H](C)CO)C(=O)c2cc(NC(=O)NC3CCCCC3)ccc2O1,inactive: 0.973
14,C[C@@H]1CCCCO[C@@H](CN(C)Cc2ccccc2)[C@@H](C)CN([C@H](C)CO)C(=O)c2cc(NC(=O)Cc3ccccc3)ccc2O1,inactive: 1
15,C[C@@H]1CN([C@H](C)CO)C(=O)Cc2cc(NC(=O)C3CCCCC3)ccc2O[C@H]1CN(C)Cc1ccc(C(F)(F)F)cc1,inactive: 0.95
16,C[C@H](CO)N1C[C@H](C)[C@H](CN(C)C(=O)Nc2ccc(F)cc2)Oc2ccc(NC(=O)CCN3CCOCC3)cc2CC1=O,inactive: 0.959
17,C[C@H](CO)N1C[C@H](C)[C@@H](CN(C)S(=O)(=O)c2cn(C)cn2)OCCCC[C@H](C)Oc2ccc(NC(=O)Nc3cccc4ccccc34)cc2C1=O,inactive: 1.02
18,C[C@@H]1CCCCO[C@@H](CN(C)Cc2ccc(C(F)(F)F)cc2)[C@@H](C)CN([C@@H](C)CO)C(=O)c2cc(NC(=O)Cc3ccccc3)ccc2O1,inactive: 1.02
19,C[C@H](N)C(=O)N1CCc2ccccc2C1,inactive: 0.99

row,SMILES,relative growth
1,C[C@H](CO)N1C[C@H](C)[C@H](CN(C)C(=O)Nc2cccc3ccccc23)Oc2ncc(C#Cc3cccc(F)c3)cc2C1=O,inactive: 0.992
2,O=C(C[C@@H]1CC[C@H]2[C@@H](COC[C@@H](O)CN2S(=O)(=O)c2ccccc2F)O1)N1CCC(Cc2ccccc2)CC1,inactive: 1.02
3,CN1CCN(C(=O)C[C@H]2CC[C@@H]3[C@H](COC[C@@H](O)CN3C(=O)Nc3cc(Cl)cc(Cl)c3)O2)CC1,inactive: 0.946
4,CC1=CC2=NC(=O)C[C@](C)(C(=O)O)N2C=C1,inactive: 1.01
5,O=C(Cn1c(CO)c[nH]c1=S)NC1CC1,inactive: 1.06
6,C[C@H](CO)N1C[C@H](C)[C@@H](CN(C)S(=O)(=O)c2ccc(Cl)cc2)OCCCC[C@H](C)Oc2ccc(NC(=O)Nc3ccc(F)cc3)cc2C1=O,inactive: 1.05
7,C[C@@H]1CN([C@@H](C)CO)C(=O)Cc2cc(NC(=O)Cn3cnnn3)ccc2O[C@@H]1CN(C)C(=O)Nc1ccc(C(F)(F)F)cc1,inactive: 0.984
8,CCOC(=O)c1cccc(C(=O)O)n1,inactive: 1.01
9,Cc1ccc(S(=O)(=O)N(C)C[C@H]2OCCCC[C@H](C)Oc3ccc(NC(=O)Cc4ccccc4)cc3C(=O)N([C@@H](C)CO)C[C@H]2C)cc1,inactive: 1
10,C[C@@H]1CN([C@@H](C)CO)C(=O)Cc2cc(NC(=O)C3CC3)ccc2O[C@H]1CN(C)C(=O)NC1CCCCC1,inactive: 0.989
11,S=C(SN1CCOCC1)N1CCOCC1,inactive: 0.98
12,COc1ccc(S(=O)(=O)Nc2cccc3c2O[C@@H](CN(C)Cc2ccc(Oc4ccccc4)cc2)[C@H](C)CN([C@H](C)CO)C3=O)cc1,inactive: 1.05
13,CC(C)NC(=O)N(C)C[C@H]1OCCCC[C@@H](C)Oc2ccc(NS(C)(=O)=O)cc2C(=O)N([C@H](C)CO)C[C@@H]1C,inactive: 0.984
14,CC(C)C[C@@](O)(CC(=O)O)C(=O)O,inactive: 0.977
15,CO[C@@H]1CN(C)C(=O)c2cc(NC(=O)CC(F)(F)F)ccc2OC[C@@H](C)N(S(=O)(=O)c2cn(C)cn2)C[C@H]1C,inactive: 1.02
16,COc1cccc(-c2cnc3c(c2)C(=O)N([C@H](C)CO)C[C@H](C)[C@H](CN(C)S(=O)(=O)c2cccc(OC)c2)O3)c1,inactive: 1.01
17,CCCNC(=O)[C@@]1(Sc2ccc(C)cc2)CC(=O)N(Cc2cc(C(F)(F)F)cc(C(F)(F)F)c2)[C@@H]1c1ccc(CO)cc1I,inactive: 1
18,COc1cc(F)c(C(C)C)cc1-c1ccc(C(F)(F)F)cc1CN1C(=O)O[C@H](c2cc(C(F)(F)F)cc(C(F)(F)F)c2)[C@@H]1C,inactive: 1.03
19,COc1cc(NC(=O)c2cccs2)c(C(=O)OCC(=O)c2cc(C)n(-c3ccccc3)c2C)cc1OC,inactive: 0.995
